Potency data for 58 compounds are collected here from PubChem BioAssay AID360 (National Center for Advancing Translational Sciences (NCATS), 2006).

Among all 48,000 compounds or so, about 550 (1.1%) were called active. Not shown: some 4% with an inconclusive outcome. Rule as the data show it: active = potency below about 15 µM; inconclusive = mostly about 16 µM to 33 µM; inactive = weaker than that. The list shows a part of the results. Some results are limits rather than exact numbers.
Potency is read from the fitted curve at half-maximal effect.

Sequence of UniProt P04062 (P04062 whole entry, looked up): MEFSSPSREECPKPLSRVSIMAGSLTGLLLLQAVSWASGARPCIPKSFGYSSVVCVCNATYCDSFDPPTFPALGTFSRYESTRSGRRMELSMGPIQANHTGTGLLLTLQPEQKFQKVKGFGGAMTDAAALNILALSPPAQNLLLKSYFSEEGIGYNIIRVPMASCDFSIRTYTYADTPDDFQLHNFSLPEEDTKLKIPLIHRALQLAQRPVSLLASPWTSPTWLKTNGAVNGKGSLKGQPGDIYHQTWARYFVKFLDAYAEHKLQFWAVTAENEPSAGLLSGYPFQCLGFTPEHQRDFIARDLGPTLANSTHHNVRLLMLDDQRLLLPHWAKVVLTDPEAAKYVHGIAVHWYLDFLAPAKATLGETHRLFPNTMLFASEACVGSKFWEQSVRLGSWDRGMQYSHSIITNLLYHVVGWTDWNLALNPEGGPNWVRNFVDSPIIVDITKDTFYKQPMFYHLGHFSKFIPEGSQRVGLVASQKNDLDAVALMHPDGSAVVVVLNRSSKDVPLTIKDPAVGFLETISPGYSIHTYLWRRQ

The assay has as its target Lysosomal acid glucosylceramidase (Homo sapiens) (UniProt P04062). Kind of assay: Glucocerebrosidase.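 Also: the screen sought inhibitors.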 The following applies: purified enzyme, resorufin glucoside fluorescence (screen aimed at inhibitors), 20 min. In outline:
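Normal human glucocerebrosidase (0.2 nM final) was assayed with resorufin β-D-glucopyranoside (30 uM final) in 50mM citric acid/KH2PO4, 10mM sodium taurocholate, 0.01% tween-20, pH 5.9. Compounds were titrated; fluorescence (Ex 548, Em 600) read after 20 min at RT.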
For the compound `COc1cccc(-c2cc(C(=O)Nc3ccccc3SC)no2)c1`, the Potency was inactive: > 76.9 µM.
As for `c1coc(CNc2c3c(nc4ncnn24)CCC3)c1`, the Potency was inactive: > 76.9 µM.
For `CCOC(=O)N1CCN(C(=O)c2ccc3c(c2)NC(=O)C(N2CCOCC2)S3)CC1` (stereo not drawn), the Potency is inactive: > 76.9 µM.
The result for `Cn1cc(CNC(=O)COc2ccc(Cl)cc2Cl)cn1` reads inactive: > 76.9 µM; that for `CC1CC(C)CN(c2ncc3c(n2)CC(c2ccccc2)CC3=O)C1` (stereo not drawn), inactive: > 76.9 µM.
For `O=C1NC(Cc2c[nH]c3ccccc23)C(=O)N1CCOc1ccc(F)cc1` (stereo not drawn), the Potency is inactive: > 76.9 µM.
Turning to `COCCCn1cnc2c(c1=O)c1nc3ccccc3nc1n2-c1ccccc1`, the Potency was inactive: > 76.9 µM.
The result for `CCN(CC)C(=O)CSc1nnc(CCNC(=O)OC(C)(C)C)o1` reads inactive: > 76.9 µM; that for `COc1ccc2cc3cc(C(=O)Nc4ccccc4N4CCN(C)CC4)oc3nc2c1`, inactive: > 76.9 µM; that for `CC(=O)c1ccccc1Oc1nc(CN2CCOCC2)nc2scc(-c3cccs3)c12`, inactive: > 76.9 µM.
Turning to `COc1cccc(Oc2nc3ncn(Cc4ccccc4)c3c(=O)n2C)c1`, the Potency is inactive: > 76.9 µM.
The result for `CCCOC(=O)c1cc(=O)[nH]c2ccccc12` reads inactive: > 76.9 µM; that for `Cc1ccc(C)c(NC(=O)C2CC(Cl)=CCC2C(=O)O)c1` (stereo not drawn), inactive: > 76.9 µM.
Turning to `Cn1c(=O)[nH]c(=O)c2c1nc(N1CCNCC1)n2CCOc1ccccc1`, the Potency was inactive: > 76.9 µM.
Consider `N#CCCSc1ncnc2c1oc1ccccc12`, for which the Potency is inactive: > 76.9 µM.
With `CCOC(=O)N1CCN(C(=O)C(NC(=O)c2ccc(CC)cc2)C(C)C)CC1` (stereo not drawn) the figure was inactive: > 76.9 µM.
For `CSc1nc2c(c(=O)[nH]1)C(c1ccncc1)C(C(=O)OC(C)C)=C(C)N2` (stereo not drawn), the Potency was inactive: > 76.9 µM.
With `CCOC(=O)c1nc(C)[nH]c1C(=O)OCC` the figure was inactive: > 76.9 µM.
With `COc1ccc(OC)c(Nc2cc(C)nc3ccccc23)c1`, the Potency was inactive: > 76.9 µM.
Regarding `COc1ccc(-c2nnc(SCC(=O)Nc3ccc(C)cc3)n2C)cc1`, the Potency is inactive: > 76.9 µM.
With `Cc1nonc1NC(=O)CSc1nnc(-c2ccoc2C)n1CC(C)C` the figure was inactive: > 76.9 µM; with `COc1cccc(-c2csc3nc[nH]c(=O)c23)c1`, inactive: > 76.9 µM.
As for `CCOc1ccc2[nH]c3c(N4CCN(c5ccccn5)CC4)ncnc3c2c1`, the Potency is inactive: > 76.9 µM.
The result for `COc1ccc(NC(=O)CSc2nnc(C(C)C)n2N)cc1` reads inactive: > 76.9 µM.
The result for `CCCc1cc(C(=O)N2CCN(S(=O)(=O)c3ccc(OC)c(OC)c3)CC2)cs1` reads inactive: > 76.9 µM; that for `c1ccc(-c2nnc(SCc3nc4ccccc4[nH]3)n2Cc2ccco2)nc1`, inactive: > 76.9 µM; that for `Nc1nonc1-c1nc2ccccc2n1CCC(=O)O`, inactive: > 76.9 µM.
The result for `COc1ccc(-c2c3c(=O)n(C)c(=O)n(C)c3cn2NC(C)=O)cc1` reads inactive: > 76.9 µM.
For the compound `CC(=O)C1=C(O)C(=O)N(Cc2ccccc2)C1c1cccs1` (stereo not drawn), the Potency was inactive: > 76.9 µM.
As for `Cc1ccc(S(=O)(=O)N2CCN(C(=O)CSc3nnc(C)c(=O)[nH]3)CC2)cc1`, the Potency was inactive: > 76.9 µM.
With `COc1ccc2nc3oc(C(=O)N4CCN(c5ccccc5F)CC4)cc3cc2c1` the figure was inactive: > 76.9 µM; with `COc1c(S(=O)(=O)N2CCCCC2)ccc2c(S(=O)(=O)N3CCCCC3)cccc12`, “inactive”.
The result for `O=C(O)c1nn(-c2ccc(Cl)cc2)ccc1=O` reads inactive: > 76.9 µM; that for `CCOCCCNS(=O)(=O)Cc1ccccc1`, inactive: > 76.9 µM.
With `O=C(Nc1cc(C(=O)N2CCOCC2)cc(C(=O)N2CCOCC2)c1)c1cc(F)c(F)cc1Cl` the figure was inactive: > 76.9 µM; with `COc1cccc(C2C(C(=O)c3sc(C)nc3C)=C(O)C(=O)N2CCN2CCOCC2)c1` (stereo not drawn), inactive: > 76.9 µM.
Turning to `O=C(CSc1ncccc1C(=O)O)NCCC1=CCCCC1`, the Potency was inactive: > 76.9 µM.
With `Cc1ccc(S(=O)(=O)Cc2cccc(C(=O)N3CCOCC3)c2)cc1` the figure was inactive: > 76.9 µM; with `O=C(Cc1cccs1)Nc1ccccn1`, inactive: > 76.9 µM.
Turning to `COc1cc(-c2c(C#N)c(N)nc3c2CCCC3)ccc1O`, the Potency was inactive: > 76.9 µM.
In the case of `Cc1nnc(N(C)C(=O)c2cccnc2)s1`, the Potency was inactive: > 76.9 µM.
As for `CCc1nc2c(sc3nc4c(cc32)COC(C)(C)C4)c(=O)n1Cc1ccco1`, the Potency is inactive: > 76.9 µM.
For the compound `CC1(C)Cn2c(nnc2-c2cccc(O)c2)S1`, the Potency is inactive: > 76.9 µM.
For the compound `Cc1ccc(C)n1-n1cnc2scc(-c3cccs3)c2c1=O`, the Potency is inactive: > 76.9 µM.
On to `CC(C)CC(=O)Nc1ccc2oc(-c3ccncc3)nc2c1`, for which the Potency is inactive: > 76.9 µM.
With `N#Cc1c(NC(=O)c2ccc(Br)o2)n(-c2ccccc2)c2nc3ccccc3nc12` the figure was inactive: > 76.9 µM; with `CC(Oc1ccccc1)C(=O)OCC(=O)NC(=O)NCc1ccco1` (stereo not drawn), inactive: > 76.9 µM.
As to `CCOC(=O)N1CCN(S(=O)(=O)N(C)C)CC1`, the Potency is inactive: > 76.9 µM.
For `O=C(CSc1nnc(-c2ccco2)n1-c1ccccc1)N1CCOCC1`, the Potency is inactive: > 76.9 µM.
Regarding `O=C(O)Cn1c(C(F)(F)F)nc2ccccc21`, the Potency is inactive: > 76.9 µM.
The result for `CC(C)(C)NC(=O)c1ccc2c(c1)C(=O)N(C1CCCCC1)C2=O` reads inactive: > 76.9 µM.
For `COc1ccccc1NC(=O)CN1CCCCC1`, the Potency is inactive: > 76.9 µM.
On to `O=S(=O)(Nc1ccc2c(c1)OCCO2)c1cccc2cccnc12`, for which the Potency was inactive: > 76.9 µM.
With `O=C(OCc1nnc(-c2ccccc2)o1)c1ccc2c(c1)C(=O)N(CCc1ccccc1)C2=O` the figure was inactive: > 76.9 µM; with `CC(C)(C)n1nnnc1C(c1cccc(C#N)c1)N1CCC(Cc2ccccc2)CC1` (stereo not drawn), inactive: > 76.9 µM; with `c1ccc(-n2c(SCc3nc(-c4cccs4)no3)nnc2-c2ccco2)cc1`, inactive: > 76.9 µM.
The result for `Cc1nnc(SCC(=O)Nc2nc3c(s2)CC(C)CC3)s1` (stereo not drawn) reads inactive: > 76.9 µM.
For `O=C(CN1C(=O)C2C3C=CC(C3)C2C1=O)NCCc1ccccc1Cl` (stereo not drawn), the Potency is inactive: > 76.9 µM.
